Data on 42 sequences can be found in publication PMC7819943, “Rice protein-binding microarrays: a tool to detect cis-acting elements near promoter regions in rice”.

This is one part of the list.

The assay addresses T1, OsWOX13 (Oryza sativa, UniProt Q5QMM3 1-267).
T1 sequence: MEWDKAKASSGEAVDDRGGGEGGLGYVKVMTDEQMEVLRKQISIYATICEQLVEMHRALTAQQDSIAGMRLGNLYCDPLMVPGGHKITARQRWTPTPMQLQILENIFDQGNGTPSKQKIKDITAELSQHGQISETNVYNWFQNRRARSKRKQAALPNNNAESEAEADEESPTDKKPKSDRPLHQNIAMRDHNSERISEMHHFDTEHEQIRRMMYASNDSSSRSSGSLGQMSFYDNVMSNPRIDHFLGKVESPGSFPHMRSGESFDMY
The assay can be described thus: protein-binding microarray (RPBM); PBS, 2% BSA, 51.3 ng/ul salmon testes DNA, 50 uM zinc acetate, 200 nM TF, 25 C, 1 h; high values mean tight binding. As to conditions: protein: recombinant; tags: N-terminal polyhistidine and DsRed monomer fusion (pET32a); label: CyDye5-dUTP incorporated in the synthesized complementary strand; 3' TTTTT single-stranded linker to array surface; dsDNA, one strand shown. The procedure, abridged: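 A custom Agilent array was converted to double-stranded form by primer extension with Cy5-dUTP and blocked with 2% BSA. Protein at 200 nM in PBS with 2% BSA, salmon testes DNA and 50 µM zinc acetate was applied for 1 h at 25 °C, followed by washing. The proteins were polyhistidine–DsRed N-terminal fusions of transcription factors, expressed in E. coli BL21-CodonPlus and Ni–NTA-purified. The binding signal is per-feature fluorescence intensity (arbitrary units) from an Axon 4000B scanner.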
Regarding “CAAATTAAAGGATAATCAGCTTTACTCTAGTGGATGCATGCGGAGTCACCTAGTGCAG”, the binding signal is 8500 fluorescence intensity (a.u.).

In the case of “GAGATTAATATATAATAGCAAGACATACCTCCATCTAACACGGAGTCACCTAGTGCAG”, the binding signal was 4490 fluorescence intensity (a.u.).

Consider “CGTCTATATAATTAATAACTTATTCTATACTAATTAATCTCGGAGTCACCTAGTGCAG”, for which the binding signal is 7040 fluorescence intensity (a.u.).

With “TTCCTAATTTATTTAGAATTCTCACCAGGTCATAAGAAAGCGGAGTCACCTAGTGCAG”, the binding signal is 12100 fluorescence intensity (a.u.).

Turning to “TCTTAATTTAATTATCTATGTTATGTATAAAATTAGATGCCGGAGTCACCTAGTGCAG”, the binding signal was 44300 fluorescence intensity (a.u.).

For “CCCCATTATTCTCAATCAAATCAGTGCATGATCAGTAGGGCGGAGTCACCTAGTGCAG”, the binding signal was 29800 fluorescence intensity (a.u.).

Turning to “GCGACAGGACGAGGTAATCAAGAAACGGGATTAAGATTAGCGGAGTCACCTAGTGCAG”, the binding signal is 4460 fluorescence intensity (a.u.).

Turning to “GACACAAATTGAAATTATCATGAAAGACTTGAGTGAAGCACGGAGTCACCTAGTGCAG”, the binding signal is 44600 fluorescence intensity (a.u.).

As for “TTCAATTAATTATACAAAAGGACATTTCAACTGTTAAGTGCGGAGTCACCTAGTGCAG”, the binding signal was 20200 fluorescence intensity (a.u.).

Turning to “AGGAAGGCGCTGCAGAGGCCTGGGTTACCGGCGAATGACGCGGAGTCACCTAGTGCAG”, the binding signal was 9400 fluorescence intensity (a.u.).

Turning to “AATCACTCAATTATGGGGCAAAAGAGCACAATTTTCTTCTCGGAGTCACCTAGTGCAG”, the binding signal is 4190 fluorescence intensity (a.u.).

Regarding “TGGATGATTAGGATGGAGAGAATGCCACCCCTGCCATTACCGGAGTCACCTAGTGCAG”, the binding signal is 19600 fluorescence intensity (a.u.).

In the case of “ATCAGCCAAAATTTAAATTTACAACCTTAAATTTGGAGTTCGGAGTCACCTAGTGCAG”, the binding signal is 7880 fluorescence intensity (a.u.).

Consider “GTGCTTTAATCAGTAATTTTGCAATTGCTTTTGAATTTCACGGAGTCACCTAGTGCAG”, for which the binding signal was 5640 fluorescence intensity (a.u.).

With “GCATAAATTGAACCCATTTGAATCGTAGATGCAAAAGGATCGGAGTCACCTAGTGCAG”, the binding signal was 19400 fluorescence intensity (a.u.).

For “GATCGCCACAAATTGACATGTATATGGTGACACGAATCGACGGAGTCACCTAGTGCAG”, the binding signal was 13000 fluorescence intensity (a.u.).

On to “CAGAATGGAGATTGTCAGATATCACCATCTGTAAGCTGTTCGGAGTCACCTAGTGCAG”, for which the binding signal is 3510 fluorescence intensity (a.u.).

For “TTTATATTATTTGTCAATCTTATTGTCAACTTATTAATCACGGAGTCACCTAGTGCAG”, the binding signal is 5140 fluorescence intensity (a.u.).

As for “GTAAATCCGTGATTAATTCTATCTAATCAAAACCGTCCTTCGGAGTCACCTAGTGCAG”, the binding signal was 22300 fluorescence intensity (a.u.).

With “GTTAAATCATCTTATTGTAAATTCATCGATCGAAGTTGTGCGGAGTCACCTAGTGCAG”, the binding signal is 8390 fluorescence intensity (a.u.).

Regarding “CTACAGCACCATGATTTATTATTTATTATATTGGTGCAATCGGAGTCACCTAGTGCAG”, the binding signal was 4860 fluorescence intensity (a.u.).

Turning to “AGTCAATAATTATGAAAATTGATGAGTAACACTGCTACTCCGGAGTCACCTAGTGCAG”, the binding signal was 41000 fluorescence intensity (a.u.).

With “TCCCAGATTGGCGCACCCCGAACATTCTCGAAACACCTTCCGGAGTCACCTAGTGCAG”, the binding signal was 8530 fluorescence intensity (a.u.).

“ATAGGATTGATCTCATCTCCCCAGGGCGACGTGGGGATCGCGGAGTCACCTAGTGCAG”: the binding signal is 9880 fluorescence intensity (a.u.).

In the case of “GTAGATTGGACAAACAAACATTGGGGCTAGTGTATTAGAACGGAGTCACCTAGTGCAG”, the binding signal is 23700 fluorescence intensity (a.u.).

For “ACTAATTGTACAGTTAGGGGAGAAATCGCGAGACGAATTTCGGAGTCACCTAGTGCAG”, the binding signal is 4980 fluorescence intensity (a.u.).

With “CAGACTTCAGAACTTGATTGATTATAACTTAGTACTTCATCGGAGTCACCTAGTGCAG”, the binding signal was 24500 fluorescence intensity (a.u.).

In the case of “AGTTAACATGATTTATGATAATTTTAATGTAAATGGTATACGGAGTCACCTAGTGCAG”, the binding signal is 16700 fluorescence intensity (a.u.).

Regarding “GTGAAATATGATTGTTTGTACTTTCAGATAAGAGAATTGCCGGAGTCACCTAGTGCAG”, the binding signal was 18000 fluorescence intensity (a.u.).

As for “TGTGACATTATCAAATTATATTTCATGATGAATCTACGTACGGAGTCACCTAGTGCAG”, the binding signal was 13900 fluorescence intensity (a.u.).

For the sequence “TTAATTGGGATGATAGTGTAAATAGATCTGAACACTTTGACGGAGTCACCTAGTGCAG”, the binding signal was 15900 fluorescence intensity (a.u.).

As to “TGTTCTTGTCTGTGATTGATAGCTGTATATGTCTCCCGGACGGAGTCACCTAGTGCAG”, the binding signal is 38000 fluorescence intensity (a.u.).

On to “CTCAATCATCTTCAATCCCCTCTAAACCGAACAAGAACTTCGGAGTCACCTAGTGCAG”, for which the binding signal is 11200 fluorescence intensity (a.u.).

Take “GTCAAATTTATGGCATTGATAGAGTTTTAGTAGGGGTGTTCGGAGTCACCTAGTGCAG”: the binding signal is 21000 fluorescence intensity (a.u.).

“TCATTGAGATTGAGAAGACTCTAGTAGAGTACCTAGGTCGCGGAGTCACCTAGTGCAG”: the binding signal was 8220 fluorescence intensity (a.u.).

Turning to “ATATATATGTCTAAATTCATTAACATATAAATGAATGTGGCGGAGTCACCTAGTGCAG”, the binding signal was 3480 fluorescence intensity (a.u.).

Take “CCATCGCGGATTGAATCAAGACGGAATAAGTTCACCTAACCGGAGTCACCTAGTGCAG”: the binding signal was 7520 fluorescence intensity (a.u.).

Turning to “TTGTATGAATGAGCTATTAGATTGGCTATAGATGAATTGGCGGAGTCACCTAGTGCAG”, the binding signal is 8950 fluorescence intensity (a.u.).

“GGCCTGTCATCTTCTTCCAATCATCTCATTTCTCTCTTCTCGGAGTCACCTAGTGCAG”: the binding signal was 11000 fluorescence intensity (a.u.).

Consider “GTGCAATCACTGAGAAATCAGCTTACCACTGAGTAATCACCGGAGTCACCTAGTGCAG”, for which the binding signal was 13500 fluorescence intensity (a.u.).

On to “TAATTAGTCTATGATTAGCCATAATTGCTACAGTAACCCACGGAGTCACCTAGTGCAG”, for which the binding signal was 21800 fluorescence intensity (a.u.).

For “AAAACTACAAATAATTTGATCAAACTATCACAAAACTACACGGAGTCACCTAGTGCAG”, the binding signal was 5300 fluorescence intensity (a.u.).
